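All cell lines were grown in 96-well plates and treated with compound for 48 hours. GI50: concentration for 50% inhibition of growth. At the TGI there is no net growth.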

This assay has as its system NCI-H322M lung. Nature of the assay: NCI-60 cell line screen, 48 h.
The molecule `Cc1ccc2nc(CC(=O)c3ccc4ccccc4c3)c(=O)[nH]c2c1` returned a TGI greater than 100 µM.

Take `Cc1ccc(C(CC(=O)c2ccccc2)C(C(=O)c2ccccc2)C(c2ccc(C)cc2)C2C(=O)NC(=S)NC2=O)cc1` (stereo not given): the GI50 was 44.1 µM and the TGI is greater than 50 µM.

`COC(=O)C(C(=O)C(=O)Nc1ccc([N+](=O)[O-])cc1)c1nc2cc(C)c(C)cc2[nH]c1=O` (stereo not given) returned a TGI greater than 100 µM.

On to `Cc1cccc2c1ccc1c3occ(C)c3c(=O)oc21`, for which the GI50 was greater than 100 µM and the TGI was greater than 100 µM.

Consider `O=C1C(Cl)=C(Nc2ccccn2)C(=O)c2ccccc21`, for which the GI50 is 7.14 µM and the TGI is 20.4 µM.

`Nc1ccc(-c2nc3ccccc3s2)cc1I` yielded a TGI greater than 100 µM.

The molecule `COCN1C(=O)[C@@H]2CCCN2C(=O)c2cc(Cl)ccc21` came in with a TGI greater than 100 µM.

As to `COc1cc(CCNc2nc3cc(N)cc(N)c3nc2-c2ccccc2)cc(OC)c1`, the GI50 is 3.75 µM and the TGI came out at 11.3 µM.

The molecule `CO[C@]12CCC(=O)N1C=Cc1c2[nH]c2ccccc12` yielded a TGI greater than 100 µM.

Turning to `C(=C\c1nc2ccccc2s1)/c1ccc(N2CCOCC2)s1`, the GI50 is greater than 100 µM and the TGI is greater than 100 µM.

Molecule `Cc1cn(C2CC(N=[N+]=[N-])C(C(=O)O)O2)c(=O)[nH]c1=O` (stereo not given) yielded a TGI greater than 100 µM.

As for `Nc1nc(Sc2ccc([N+](=O)[O-])cn2)c2[nH]cnc2n1`, the TGI was found to be 64.1 µM.

For the molecule `Cc1ccc(Nc2cc(=O)[nH]c(=O)[nH]2)cc1CS`, the TGI was greater than 100 µM.

Regarding `C=CCOCn1ccc(NC(=O)c2ccccc2)nc1=O`, the TGI was greater than 100 µM.

Regarding `COc1cc([N+](=O)[O-])c(OC)cc1-c1nc2n(c1/C(N)=N/C(=N)N)CCS2`, the GI50 was greater than 100 µM and the TGI was greater than 100 µM.

As to `O=c1[nH]cnc2c1ncn2C1SC(CO)C(O)C1O` (stereo not given), the TGI was greater than 100 µM.

On to `COC(=O)C1=C(OC(=O)/C(=C/c2c(F)cccc2F)c2ccccc2)C(C(=O)OC)[C@@]2(O)[C@@H](C(=O)OC)[C@H](C)C[C@@H]1[C@@H]2C(=O)OC` (stereo not given in full), for which the TGI was greater than 100 µM.

`CC1C(=O)CC[C@@]2(C)C(=O)CCCC12O` (stereo not given in full) gave a TGI greater than 100 µM.

Molecule `Cc1nc2ccc(S(=O)(=O)Nc3ccccc3Cl)cc2c(=O)n1NC(=O)CNc1ccccc1Cl` gave a TGI greater than 100 µM.

Molecule `Cc1ccc(S(=O)(=O)c2ccsc2NC(=O)c2ccccc2)cc1` returned a TGI greater than 100 µM.

Consider `N#CC(C(=O)C(=O)Nc1ccc(Cl)c(Cl)c1)c1ccc(Cl)cc1` (stereo not given), for which the TGI is greater than 100 µM.

For the molecule `CN1CC(S(=O)(=O)c2ccccc2)CC(S(=O)(=O)c2ccccc2)C1c1ccccc1` (stereo not given), the TGI amounted to 27.4 µM.

In turn, `O=c1nc(-c2ccccc2)scc1-c1ccccc1` registered a TGI greater than 100 µM.

With `Cc1nn(-c2ccccc2)c(C)c1/C=N/N1CCN(Cc2ccccc2)CC1`, the GI50 is 8.27 µM and the TGI came out at 78.3 µM.

Take `CC(C)N(C(=O)c1ccc(NCc2cc(O)ccc2O)cc1)C(C)C`: the TGI was 67.2 µM.

`COc1ccc2[nH]cc(CN3CCC(CO)(c4ccccc4)CC3)c2c1` had a TGI greater than 100 µM.

Regarding `Cc1ccc(-c2n[nH]c(=O)n2N2C(=O)C=CC2=O)cc1`, the TGI was greater than 100 µM.

Consider `CCOC(=O)/C(=C/c1ccc(Cl)cc1)N(CC)CC`, for which the TGI is greater than 100 µM.

As for `CCCCCCCCCCCCCC(=O)OC1C(CO)OC(=O)C1O` (stereo not given), the TGI was greater than 100 µM.

Consider `CCN(CC)CCOCC1CCCN2CCCCC12` (stereo not given), for which the TGI is greater than 100 µM.

`O=C1c2ccccc2-n2c1nc1cc(Cl)ccc1c2=O`: the TGI was greater than 100 µM.

`NN/C(=N\S(=O)(=O)c1cccc2nsnc12)Nc1ccc(Cl)cc1` returned a TGI greater than 100 µM.

`CC1=C2[C@@H](c3ccccc3)C3C=CC2(c2ccccc23)N(C(=O)Nc2cccc3ccccc23)C1=O` (stereo not given in full) yielded a TGI greater than 100 µM.

With `O=C(NCc1cccs1)OC1CC2CCC1C2` (stereo not given), the TGI is greater than 100 µM.

`O=C1C(Cl)C(c2cccc(Br)c2)N1c1c(O)c(Cl)cc(Br)c1Cl` (stereo not given) returned a TGI of 29.1 µM.

On to `COC(=O)c1cc(NC(=O)CN(CCN(CC(=O)O)CC(=O)Nc2ccc(O)c(C(=O)OC)c2)CC(=O)O)ccc1O`, for which the GI50 was greater than 100 µM and the TGI is greater than 100 µM.

With `Cc1cn(C2CC(N=[N+]=[N-])C(CO)O2)c(=O)n(CCCCO)c1=O` (stereo not given), the TGI was greater than 100 µM.

On to `OCCN1CCN(c2nc(Nc3ccc(-c4nc5ccccc5[nH]4)cc3)c3cn[nH]c3n2)CC1`, for which the GI50 is 1.76 µM and the TGI came out at 3.26 µM.

Take `COc1cccc(N2C(=O)[C@H]3[C@H]4CC(C(C)(C)C)CC[C@H]4c4c([nH]c5ccccc45)[C@H]3C2=O)c1` (stereo not given in full): the TGI amounted to 41 µM.

In turn, `O=[N+]([O-])c1cc([N+](=O)[O-])c(C(Cl)C(Cl)c2ccccc2)cc1C(Cl)C(Cl)c1ccccc1` (stereo not given) had a TGI of 29.3 µM.

The molecule `CS(=O)(=O)N(CC(=O)O)Cc1ccccc1` returned a TGI greater than 100 µM.

In the case of `CNC(=O)c1c(NC(=O)c2ccc(C(C)C)cc2)sc2c1CCC(=O)C2`, the GI50 was 3.28 µM and the TGI was greater than 34.1 µM.

In turn, `Cc1n(-c2ccccc2)c2c([n+]1Cc1ccc([N+](=O)[O-])cc1)C(=O)c1ccccc1C2=O` registered a TGI of 6.87 µM.

Molecule `ClCCCC1COc2ccccc2O1` (stereo not given) gave a TGI greater than 100 µM.

Molecule `O=[N+]([O-])c1cc(C(F)(F)F)ccc1S(=O)(=O)N[C@@H]1CCCC[C@H]1NS(=O)(=O)c1ccc(C(F)(F)F)cc1[N+](=O)[O-]` displayed a TGI greater than 100 µM.

Turning to `O=C(NCCCCCCNC(=O)NC1OCC(O)C(O)C1O)NC1OCC(O)C(O)C1O` (stereo not given), the TGI was greater than 100 µM.

`CC(=O)[C@]1(C)[C@H](C)O[C@](C)(CO)[C@H]1O[Si](C)(C)c1ccccc1`: the TGI is greater than 100 µM.

Regarding `CNc1ccc(C(=O)CC(O)CCC(C)C2OC(=O)CC(O)CC(=O)CC(O)CC(O)CC(O)CC(O)CC3(O)CC(O)C(C(=O)NCCc4ccccn4)C(CC(OC4OC(C)C(O)C(N)C4O)/C=C/C=C/C=C/C=C\C=C/C=C/C=C/C2C)O3)cc1` (stereo not given), the GI50 was 0.188 µM and the TGI was determined as 0.759 µM.

For `Cc1cn2c(/C=N/N=C(N)N)c(-c3cc(Cl)sc3Cl)nc2s1`, the GI50 was 0.872 µM and the TGI was 2.86 µM.

For `COc1ccc2c([nH]c3cc(O)c(C)cc32)c1CC=C(C)C`, the GI50 was 10.6 µM and the TGI was greater than 25 µM.

`CCCCCCCSCC1OC(n2cnc3c(N)ncnc32)C(O)C1O` (stereo not given) came in with a TGI greater than 100 µM.

On to `O=C(Nc1ccc(N2C(=O)CSC2c2cccs2)cc1)c1ccc(N2C(=O)CSC2c2cccs2)cc1` (stereo not given), for which the TGI is greater than 100 µM.

With `Cc1cccc2c(N)c3cccc(C(=O)NCCN4CCOCC4)c3nc12`, the TGI was 6.37 µM.

With `CN/N=C(/CC(=O)c1sc(-n2nc(-c3ccccc3)cc2-c2ccccc2)nc1C)C(=O)Nc1ccc(Cl)c(Cl)c1`, the TGI is greater than 100 µM.

With `COc1cc2c(cc1O)-c1c(OC)c(O)cc3c1C(C2)N(C)CC3` (stereo not given), the TGI was greater than 100 µM.

Turning to `Cc1cc2c(=O)c3ccccc3oc2c(C#N)c1C`, the TGI was greater than 100 µM.

With `N#CC1C(=O)NC2=C(CCOc3c2ccc2ccccc32)C1c1ccc(F)cc1` (stereo not given), the TGI is greater than 100 µM.

`Cc1cc(=O)[nH]c(NN2C(Cl)C(=O)C2c2c(O)ccc3ccccc23)n1` (stereo not given) gave a TGI greater than 100 µM.

For `Cc1csc(-c2ccc3c(c2)COC3(CCCN(C)C)c2ccc(F)cc2)c1` (stereo not given), the GI50 was 1.69 µM and the TGI is 3.08 µM.

`Cc1cc(S(=O)(=O)Nc2nc(N)nc(N(C)C)n2)c(SC(C(=O)O)c2ccccc2)cc1Cl` (stereo not given) came in with a TGI greater than 10 µM.

For the molecule `COc1ccc(NC(=O)CC(=O)n2nc(-c3ccccc3)c(N=Nc3ccccc3C)c2-c2ccccc2)cc1`, the TGI was greater than 100 µM.
